The labels stand for the following.
T1: UNK ZnF1-6 (called full-length) (human, UniProt Q9C0B0 30-357)
T1 sequence: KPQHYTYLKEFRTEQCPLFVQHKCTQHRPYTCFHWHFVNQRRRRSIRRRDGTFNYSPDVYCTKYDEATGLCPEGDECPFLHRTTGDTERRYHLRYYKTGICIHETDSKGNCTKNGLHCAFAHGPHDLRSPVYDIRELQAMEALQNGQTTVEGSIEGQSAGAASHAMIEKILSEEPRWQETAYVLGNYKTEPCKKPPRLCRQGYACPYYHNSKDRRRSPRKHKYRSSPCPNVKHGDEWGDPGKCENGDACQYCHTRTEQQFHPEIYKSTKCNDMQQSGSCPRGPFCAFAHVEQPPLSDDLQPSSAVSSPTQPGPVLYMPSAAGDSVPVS

B1: chr1:112912765:112912828:-|3pUTR|ENSG00000155380|msi1_unk|total|mutant (ssRNA)
RNA: GGGAGUUCUACAGUCCGACGAUCUUAAGGUUUGCAAAUUAAAAAGGGCCAGAAAAAUUUGGCACCAGGCAAACGAAUAAAGACCGGAUUGGGAAAGAAGUUGCUAAGUGUGCUCCGUUUUAAUAAGUAAUUCCUUCUCUUUUUCAACAGAGGAUUGAGCAUCA
B2: chr1:228098371:228098472:+|3pUTR|ENSG00000143761|msi1_unk|total|mutant (ssRNA)
RNA: GGGAGUUCUACAGUCCGACGAUCUGUGUUGAAAUCCAUUUUGGUGGUUGGUUUUUAACCCAAACUCAGUGCAUUUUUUAAAACCGUUAAGAAUCCAAGUCGAGAACACUUGAACACACAGAAGGGAGACCCCGCCCCGCACCGCAACAGAGGAUUGAGCAUCA
B3: chr4:113382420:113382521:+|3pUTR|ENSG00000145362|msi1|total|mutant (ssRNA)
RNA: GGGAGUUCUACAGUCCGACGAUCUCUUCAGGUCUUCCGAUCUUGGACAAGUUGGCAGGGUAUUUUAAAAGCUAUAACUACUGCCGUUUUCCAGUUUUCAUUGCUGCUUCCGCAAACCACGCUGUCUUACAGUGGUACUUUCUUCAACAGAGGAUUGAGCAUCA
B4: chr16:46660370:46660459:-|3pUTR|ENSG00000069329|msi1_unk|total|mutant (ssRNA)
RNA: GGGAGUUCUACAGUCCGACGAUCAAAAGGAAACCGCUCACCAUACUCCUUUCCAUGUACAUCCAGUGAGGGUUUUAUUACGCCCGGUUUCCCUUCCACCGAUUGUGCCUUUCAGAAAUGCUGAGGCCGGUUUCCCAUUUCUUACAACAGAGGAUUGAGCAUCA
B5: chr8:18872320:18872424:-|CDS|ENSG00000156011|unk|total|mutant (ssRNA)
RNA: GGGAGUUCUACAGUCCGACGAUCGCCAGAAUCAUUUCCGGAACAUUACAGGCUACAAAGGUACUGGACCAAGAUGCUGUUUCCCGUUUUUCAGUUCAGCAGGUGGAAAAAGAGCUGGACACUGCCAGUCGUAAAACACAGAGACAACAGAGGAUUGAGCAUCA
B6: ENSG00000163636:stop:overlap|stop_codon|ENSG00000163636|stop_codon|NA|stop_codon (ssRNA)
RNA: GGGAGUUCUACAGUCCGACGAUCUCUUCCAAUCAUUAGGGAACUGUCCAGGUUUAUUGCUGCCGGGAGACUACACUGCAAAAUAGAUAAAGUGAAUGAAAUAGUAGAAACCAACAGACCUGAUAGCAAGAACUGGCAGUACCACAACAGAGGAUUGAGCAUCA

Some of the results follow.

The experiment addresses T1, UNK ZnF1-6 (called full-length). Put plainly: nsRBNS (natural sequence RNA bind-n-seq); RBNS binding buffer (assumed for nsRBNS): 25 mM Tris pH 7.5, 150 mM KCl, 3 mM MgCl2, 0.01% Triton X-100, 500 ug/ml BSA, 20 U/ml SUPERase-In, 4 C; UNK is unkempt and MSI1 is Musashi-1; names of the RNAs are library labels; protein concentration not given here; high values mean tight binding.
As to B1, the binding signal came out at 0.36 enrichment R.
With B2 the figure was 0.569 enrichment R.
As for B3, the figure is 0.262 enrichment R; as for B4, 0.533 enrichment R.
With B5, the binding signal turned out to be 0.614 enrichment R.
B6 showed a binding signal of 0.501 enrichment R.

For the origin of these results see paper PMC12136788.
